# Data: paper PMC4336329 (PLoS ONE, 2015)
# Among all 310,000 compounds or so, about 2,200 (0.71%) showed an effect of 50% or more. Effects have a minus sign here. The list shows a part of the results.
# Target: human ether-à-go-go-related gene (hERG) potassium channel (human, UniProt Q12809)
# Test: primary screen, population patch clamp on CHO cells stably expressing hERG
# Chain of human ether-à-go-go-related gene (hERG) potassium channel (Q12809 whole entry, looked up): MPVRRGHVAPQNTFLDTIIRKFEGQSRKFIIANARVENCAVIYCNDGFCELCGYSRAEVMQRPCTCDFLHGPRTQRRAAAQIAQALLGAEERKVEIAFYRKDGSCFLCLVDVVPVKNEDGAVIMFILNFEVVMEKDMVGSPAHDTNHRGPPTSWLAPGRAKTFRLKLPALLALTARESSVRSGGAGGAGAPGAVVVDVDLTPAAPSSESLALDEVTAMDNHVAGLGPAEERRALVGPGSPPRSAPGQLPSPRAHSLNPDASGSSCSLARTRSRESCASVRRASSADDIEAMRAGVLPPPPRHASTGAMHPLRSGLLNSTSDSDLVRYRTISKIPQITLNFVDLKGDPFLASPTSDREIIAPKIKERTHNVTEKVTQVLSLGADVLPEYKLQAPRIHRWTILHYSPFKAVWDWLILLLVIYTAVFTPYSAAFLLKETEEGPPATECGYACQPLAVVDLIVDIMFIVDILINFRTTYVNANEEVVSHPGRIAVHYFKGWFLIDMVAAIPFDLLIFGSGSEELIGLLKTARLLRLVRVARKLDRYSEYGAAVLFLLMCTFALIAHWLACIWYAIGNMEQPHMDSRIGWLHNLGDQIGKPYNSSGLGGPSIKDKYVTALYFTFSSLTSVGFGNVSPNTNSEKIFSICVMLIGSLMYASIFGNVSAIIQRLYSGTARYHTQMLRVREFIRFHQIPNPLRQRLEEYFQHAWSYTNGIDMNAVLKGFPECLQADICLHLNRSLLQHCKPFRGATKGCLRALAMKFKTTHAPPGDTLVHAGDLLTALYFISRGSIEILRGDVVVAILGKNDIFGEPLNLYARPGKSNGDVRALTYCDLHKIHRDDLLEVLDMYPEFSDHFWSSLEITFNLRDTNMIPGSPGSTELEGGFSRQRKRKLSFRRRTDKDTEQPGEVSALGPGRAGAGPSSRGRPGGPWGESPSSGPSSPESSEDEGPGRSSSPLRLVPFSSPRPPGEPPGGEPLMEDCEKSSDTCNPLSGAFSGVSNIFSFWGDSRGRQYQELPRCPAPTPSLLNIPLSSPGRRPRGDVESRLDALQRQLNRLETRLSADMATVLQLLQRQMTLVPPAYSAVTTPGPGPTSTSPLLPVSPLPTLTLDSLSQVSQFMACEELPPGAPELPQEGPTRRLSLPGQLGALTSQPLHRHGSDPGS
row,Compound,"hERG current change (%, negative = inhibition) at 1uM [%]"
1,CCOc1ccc(NC(=O)NN2C(C)CCCC2C)cc1 (stereo not shown),12.8
2,O=C(c1ccco1)N1CCN(S(=O)(=O)c2ccc(Oc3ccccc3)cc2)CC1,11.8
3,Fc1ccc(N2CCN(/C=C/c3nnnn3-c3ccccc3)CC2)cc1,8.91
4,CCC(C)(C)NC(=O)C(C)OC(=O)c1nsc(Cl)c1Cl (stereo not shown),2.53
5,CCOc1ccc2c(c1)N(C(=O)CN1C(=O)CCC1=O)C(C)(C)C=C2C,-0.567
6,CCC1CCc2c(sc(NC(=O)c3ccoc3C)c2C(N)=O)C1 (stereo not shown),12.8
7,CCCCNc1c([N+](=O)[O-])cc(C)cc1[N+](=O)[O-],0.206
8,O=C(O)CN1C(=O)/C(=C/c2ccsc2)SC1=S,12
9,COC(=O)c1ccc(CSc2nnc(-c3ccc4c(c3)OCO4)n2-c2ccccc2)o1,9.72
10,CN(CC(=O)Nc1ccccc1C(F)(F)F)C(=O)c1ccc(-c2ccc(Cl)cc2)o1,8.84
11,Cc1cc(NC(=O)c2ccccc2)ccc1NC(=O)Cc1ccccc1,10.3
12,CCOc1ccccc1NC(=O)c1cc(CC(C)C)oc1C,13.1
13,CC(C)C(=O)Nc1nnc(SCC(=O)Nc2ccc3c(c2)OCO3)s1,12.1
14,CC1(C(=O)N/N=C/c2cc3c(cc2Br)OCO3)CC1(Br)Br (stereo not shown),5.38
15,O=C1NC2(CCCC2)C(=O)N1CCS(=O)(=O)Oc1ccccc1,6.24
16,CCCC(=O)Nc1ccc(NC(=O)c2ccccc2F)cn1,11.2
17,COc1ccccc1-n1c(O)c(C=NCc2ccccn2)c2ccccc2c1=O,9.65
18,COC(=O)c1sccc1NC(=O)c1cc(-c2cccc(C)c2)nc2ccccc12,3.61
19,Cc1ccn(S(=O)(=O)c2ccc3oc(=O)ccc3c2)n1,13
20,COc1ccc(C(=O)N/N=C/c2c(C)[nH]c(=O)[nH]c2=O)cc1,9.24
21,O=C(Nc1nc(-c2ccco2)c(-c2ccco2)s1)c1ccco1,2.31
22,Fc1ccccc1N=C1Nc2cccc3cccc1c23,10.2

row,Compound,"hERG current change (%, negative = inhibition) at 1uM [%]"
1,CCOC(=O)Cc1csc(NC(=O)Cc2ccccc2)n1,3.31
2,COc1ccccc1CN1CC(C(=O)NCCn2nc(C)cc2C)CCC1=O (stereo not shown),-7.75
3,COc1ccc2cc(C(c3nnnn3CCc3ccccc3)N3CCC(O)CC3)c(=O)[nH]c2c1 (stereo not shown),-1.14
4,CCc1ccc(OCC(=O)N/N=C/c2cc([N+](=O)[O-])ccc2N2CCCCCC2)cc1,6.01
5,CCOC(=O)CN1C(=O)S/C(=C/c2ccc(OC)c([N+](=O)[O-])c2)C1=O,10.9
6,Cc1ccc(C(=O)N(Cc2nc(-c3ccc(C)cc3)no2)C(C)C)cc1,0.608
7,CC(C)(C)C1=CC(=O)C(N2CCOCC2)=CC1=O,11.8
8,COc1ccc(OC)c2c1C(=O)c1ccccc1C2=O,5.09
9,COc1ccc(-c2noc(CSc3nc(N)c(-c4ccccc4)c(=O)[nH]3)n2)cc1,7.08
10,CCC(C)/C(C)=N/NC(=O)CSc1nc2ccccc2[nH]1 (stereo not shown),5.26
11,CC(=O)Nc1ccc(S(=O)(=O)N=S(C)(C)=O)cc1,2.71
12,COc1ccc(S(=O)(=O)NN(C)C)cc1N(C)S(=O)(=O)c1ccc(Cl)cc1,4.08
13,CCOc1ccc(C(=O)NC(C(=O)NCC2CCCO2)C(C)C)cc1 (stereo not shown),10.1
14,COc1cccc(CN2CCNC(=O)C2CC(=O)N2CCCCO2)c1OC (stereo not shown),7.47
15,COc1ccc(/C=C2/SC(=S)N(CCCC(=O)Nc3ccccc3C(=O)O)C2=O)cc1,5.8
16,O=C(COC(=O)/C=C/c1ccc(OC(F)F)cc1)Nc1cccc(S(=O)(=O)N2CCCC2)c1,2.66
17,CN(CC(=O)Nc1cccc(F)c1)C(=O)C1CC(=O)N(Cc2ccco2)C1 (stereo not shown),3.91
18,CC(C)(OC(=O)c1ccc(C(F)(F)F)cc1)c1cc2ccccc2c(=O)o1,13.9
19,COc1cc(-c2[nH]ncc2CN(C)Cc2cc(C)[nH]n2)cc(OC)c1OC,10.4
20,O=C(C1CCC(Cn2c(=O)[nH]c3ccccc3c2=O)CC1)N1CCN(c2ccccc2)CC1 (stereo not shown),12.3
21,COc1ccc(C(C)=O)cc1COc1ccc([N+](=O)[O-])c(C)c1,0.825
